Experimental data from the supplement of paper PMC4166925.
± gives the standard deviation of the averaged measurements. Whole data set: some 33,000 sequences, median “E-score (dimensionless, -0.5 to 0.5)” near -0.049, cut for the highest 2% near 0.37. This is one part of the list.

system: T1, PmTbr T-box DNA-binding domain (GST fusion); assay: PBM E-score of 8-mer (E-score (dimensionless, -0.5 to 0.5)); Tbr is Tbrain of the sea star Patiria miniata (Pm) or the sea urchin Strongylocentrotus purpuratus (Sp); higher = stronger binding preference; most listed sequences are background and not binding sites; conditions: the construct has about 5 more residues each side
T1 sequence: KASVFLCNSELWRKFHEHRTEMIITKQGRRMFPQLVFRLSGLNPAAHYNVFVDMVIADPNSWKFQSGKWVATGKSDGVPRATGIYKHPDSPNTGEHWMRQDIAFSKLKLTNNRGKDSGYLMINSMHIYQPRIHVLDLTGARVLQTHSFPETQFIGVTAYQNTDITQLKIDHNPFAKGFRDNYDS
Method in brief: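 Expression of GST-fused Tbr T-box DNA-binding domains, each holding the full T-box plus roughly five flanking residues, was carried out in BL21 E. coli at 20 °C, with purification by glutathione affinity chromatography. Universal Agilent arrays made double-stranded by primer extension were incubated with the protein at 200 nM in PBS (pH 7.5), then scanned and quantified. All ungapped 8-mers were scored from probe intensities, and each received an enrichment E-score from the Universal PBM Analysis Suite, averaged over duplicate arrays.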

Sequence | PBM E-score of 8-mer
CGATAGGC | 0.0593 ± 0.033
CTTCATCA | 0.0276 ± 0.042
CCCGGAGA | -0.0812 ± 0.065
CGTGAAAA | 0.338 ± 0.026
GCTGACGA | 0.116 ± 0.034
GCGTGCGA | 0.285 ± 0.02
GGAGGAAA | -0.249 ± 0.059
GTGCTGCA | 0.0668 ± 0.059
ATCAGGGC | -0.084 ± 0.023
GATAACAC | 0.4169 ± 0.0014
CAAGAATG | -0.104 ± 0.029
ACATACAC | 0.0835 ± 0.075
AGGTATCC | -0.121 ± 0.035
AGGGACTA | -0.0767 ± 0.046
ATGGTGAC | 0.262 ± 0.049
AATTCCCG | -0.0976 ± 0.067
CAGAACTC | -0.153 ± 0.021
AATGATGG | -0.161 ± 0.091
AGACAAAA | -0.193 ± 0.081
ATGCTGGA | -0.328 ± 0.041
CACCGCAA | 0.0187 ± 0.075
GCTCCTCC | -0.291 ± 0.022
GCACTCGC | 0.168 ± 0.041
GCAGCGGA | -0.216 ± 0.026
AAGTGACA | 0.458 ± 0.0065

Sequence | PBM E-score of 8-mer
AATCTCAA | -0.1 ± 0.067
CCACCTCA | 0.229 ± 0.039
ACTTAGCA | 0.207 ± 0.052
GGTGTTAC | 0.4752 ± 0.00012
AACACGAC | 0.13 ± 0.049
GAGCTTCC | -0.248 ± 0.027
CATCCATA | -0.26 ± 0.036
CCTCCGCA | -0.0772 ± 0.12
ACAATCGG | -0.0233 ± 0.062
GCATTGAC | -0.124 ± 0.12
CACAGGAA | -0.12 ± 0.015
GCTAGCAC | 0.33 ± 0.0063
TACCCATA | -0.104 ± 0.024
AGATAGCC | -0.294 ± 0.041
CCCGACGC | 0.102 ± 0.038
CGCAGACC | -0.244 ± 0.063
ATCTTCTG | -0.262 ± 0.01
GGGATCAC | -0.124 ± 0.12
CGGCCCTC | -0.183 ± 0.034
AGTAACGG | -0.0166 ± 0.062
CCGATAGC | 0.134 ± 0.037
AGGAGTAT | -0.229 ± 0.016
AACATGGA | -0.0742 ± 0.0047
GGGATAGA | -0.0727 ± 0.018
GATGTGCC | 0.148 ± 0.049

Sequence | PBM E-score of 8-mer
GACCTGGC | -0.00364 ± 0.055
AAGAAGAC | -0.246 ± 0.033
CACAGTGG | 0.0493 ± 0.042
GGACCGAC | -0.276 ± 0.0089
CAGAATTC | -0.101 ± 0.079
AACCCACA | 0.275 ± 0.048
CCCGATCA | -0.0612 ± 0.05
GGCGTACA | -0.238 ± 0.0082
ATATTCAC | 0.276 ± 0.07
ACGACTTC | 0.0199 ± 0.053
CCACGTCC | -0.0664 ± 0.053
CACTTATC | 0.3 ± 0.034
CTGGGCAA | -0.0976 ± 0.033
ACTGGTAG | -0.0136 ± 0.011
CAATTTAA | -0.0717 ± 0.078
CAAGGGGC | -0.095 ± 0.021
ACATCCGA | 0.0423 ± 0.028
TAATGACA | 0.155 ± 0.07
ACACAATG | 0.122 ± 0.021
AAGACGCG | -0.0527 ± 0.027
CGGTTCTC | 0.0577 ± 0.042
CCGCTACG | -0.186 ± 0.064
GAGGCACC | -0.072 ± 0.042
ACCTGTTG | 0.3234 ± 0.00092
CGATCGCG | 0.218 ± 0.026

Sequence | PBM E-score of 8-mer
CGTGTTGC | 0.259 ± 0.0072
AGTAACTG | 0.0359 ± 0.082
AGCAAACT | 0.058 ± 0.032
ACGGACAA | -0.0315 ± 0.015
AAAATAGC | 0.153 ± 0.055
ACTTTTTC | 0.124 ± 0.02
CAGCCTCA | -0.176 ± 0.028
AAGAAATC | -0.185 ± 0.033
CGCAGGTC | 0.0637 ± 0.057
CCCCGTGA | -0.0467 ± 0.12
GAGAATAA | 0.0269 ± 0.072
AAACTAGC | 0.0128 ± 0.01
GGATAAAC | -0.0868 ± 0.041
GGTTACAA | -0.0566 ± 0.048
AATACATA | 0.0821 ± 0.051
AACGGGCG | 0.194 ± 0.036
AACCTGCA | -0.102 ± 0.047
AAAGCACA | 0.117 ± 0.054
TATAAATA | -0.203 ± 0.015
GGGTTTAC | -0.0575 ± 0.0035
ATACCTAA | 0.0416 ± 0.058
ATACGCCG | -0.151 ± 0.092
AGCGAGTA | 0.103 ± 0.1
AGTGCCAA | 0.3809 ± 0.0024
GGATGGCC | -0.234 ± 0.018

Sequence | PBM E-score of 8-mer
CTGAGACC | -0.24 ± 0.018
GATCTCAA | -0.0224 ± 0.034
ACTGGCAC | 0.264 ± 0.015
AGAGCGAA | -0.0994 ± 0.014
GCTCATGA | -0.12 ± 0.095
GAGGGGTA | -0.246 ± 0.014
CATTAGAC | -0.177 ± 0.0077
CGGCTACC | -0.107 ± 0.079
AATGCGTC | 0.00296 ± 0.0052
GTTCCTTA | -0.0555 ± 0.021
ACGGGAAG | -0.0973 ± 0.061
CAGAGTAA | 0.0248 ± 0.048
CAGAGATA | -0.139 ± 0.02
CTGGCTCC | -0.179 ± 0.065
AGAGCCTC | -0.118 ± 0.041
TCATCGCA | 0.224 ± 0.037
ACTAGCCC | -0.188 ± 0.047
AGAGGCAG | -0.159 ± 0.034
AATAGTGA | 0.0587 ± 0.035
AGGGAGTG | 0.238 ± 0.064
AGCACGTG | 0.252 ± 0.026
AACTGTAT | -0.115 ± 0.054
CCTCATAG | -0.0665 ± 0.046
GCTAGTAC | 0.107 ± 0.018
CCAGGAAG | -0.108 ± 0.063

Sequence | PBM E-score of 8-mer
TATCCTCA | 0.113 ± 0.032
AGGCAACT | -0.153 ± 0.053
AACGAAAT | 0.000945 ± 0.056
AAGGGACC | -0.119 ± 0.0064
GCGGGTAC | 0.0587 ± 0.056
ACGGTAAG | -0.229 ± 0.017
ACAACACA | 0.347 ± 0.033
CAACCGAA | -0.0273 ± 0.062
AGAATGGC | -0.0505 ± 0.041
ACAGCCAT | -0.0893 ± 0.077
AATGGGGG | -0.379 ± 0.084
AGTTCGAT | 0.0508 ± 0.0041
AAGAAAGC | -0.00917 ± 0.018
AACTCCGT | -0.0678 ± 0.0093
ACAGAGAT | -0.1 ± 0.034
CACGCACG | 0.166 ± 0.02
ATTTTGCC | -0.236 ± 0.011
ATTGGGTG | 0.219 ± 0.031
ACCGTGGG | -0.127 ± 0.08
TGCAGTAA | 0.0562 ± 0.00087
CATCGTGG | 0.00413 ± 0.062
GTCCGGAA | -0.254 ± 0.047
ACTAGGCA | -0.199 ± 0.013
AGGTCGCA | 0.286 ± 0.027
AGGAGGGA | -0.145 ± 0.042

Sequence | PBM E-score of 8-mer
GTTTCAAA | -0.36 ± 0.028
AGATAAAT | -0.223 ± 0.057
GACACCAC | 0.393 ± 0.016
ACATACTC | -0.13 ± 0.018
AATGTAGC | -0.0814 ± 0.05
ACGGCAGC | -0.0266 ± 0.025
CGTAGTGA | -0.00456 ± 0.0019
GTCACTCA | 0.227 ± 0.0053
CAGGCGGA | -0.127 ± 0.072
TAAAGAGA | -0.117 ± 0.078
ACTGCGTG | -0.0457 ± 0.079
GCAATCTA | 0.037 ± 0.016
CAGCGATC | 0.0234 ± 0.031
TGATAACA | 0.306 ± 0.012
GCAGCTCA | 0.0484 ± 0.052
CCACCTGA | 0.172 ± 0.044
GGAACGCC | 0.148 ± 0.044
ACGGCCTG | -0.0299 ± 0.035
AACACCGC | 0.287 ± 0.0081
AAAATCAA | -0.0399 ± 0.094
AGTTCGGA | -0.216 ± 0.0069
ATCACTAC | 0.0608 ± 0.021
TGTCTTAA | 0.00168 ± 0.0044
ATTTGCAA | -0.0355 ± 0.0088
CTGGTCTC | -0.141 ± 0.056

Sequence | PBM E-score of 8-mer
GAACTGAC | -0.128 ± 0.048
ACCCATTG | -0.141 ± 0.018
ACGTTGCC | 0.152 ± 0.021
GCAACCAC | -0.0105 ± 0.021
AGTTGGAG | -0.108 ± 0.016
CCACTAAA | -0.0993 ± 0.0027
ACAACGCA | 0.105 ± 0.03
AATACCCC | -0.321 ± 0.036
CGCCTCAG | 0.344 ± 0.036
ATTTGATC | -0.303 ± 0.072
CCTAGAAC | -0.165 ± 0.042
CCTATCTA | -0.209 ± 0.066
ATGGAATA | -0.0607 ± 0.02
AAAACCAG | 0.076 ± 0.0043
ATCCGTCG | 0.0371 ± 0.005
TAATCCCA | -0.287 ± 0.0032
GATTGGAC | -0.0692 ± 0.062
ACGGTGAT | 0.202 ± 0.0041
AGCAACAA | 0.0934 ± 0.021
CAACGCGC | 0.147 ± 0.046
AATATCTC | 0.0397 ± 0.066
ACTCATTA | -0.0257 ± 0.047
ACAGAGCA | -0.253 ± 0.03
GTCCTCGA | -0.186 ± 0.012
ATATTGCG | 0.103 ± 0.039

Sequence | PBM E-score of 8-mer
ATTGGAAA | -0.27 ± 0.074
AGTAAAAT | -0.191 ± 0.049
TATCAATA | -0.108 ± 0.025
AACCACAC | 0.289 ± 0.0025
GTACCTTA | -0.0986 ± 0.099
CAATGCAA | -0.155 ± 0.044
GCCTAACA | 0.154 ± 0.024
CTGACAGA | 0.0579 ± 0.029
CGGAGACC | -0.203 ± 0.022
CTATTAAG | -0.116 ± 0.03
TCACGGAA | 0.0813 ± 0.0081
AGCCGCCA | 0.0884 ± 0.0055
CGGGCTCA | -0.0674 ± 0.017
AAGCATCC | -0.129 ± 0.037
GTGTTACA | 0.386 ± 0.013
GACGACAA | 0.131 ± 0.014
AAACGCTA | -0.041 ± 0.035
AGGCGATA | 0.262 ± 0.0083
GCCGTAGC | -0.268 ± 0.08
